Results: the supplement of paper PMC12067230
The data scatter; read single values as rough.

Assay: amyloid nucleation score relative to library mode (yeast Sup35 reporter selection) (log enrichment difference); higher = more amyloid nucleation; sequences are the first 22 residues of the Bri2 peptide extended by up to 12 random residues
Settings: random library (experiment): 1;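 active = nucleation score significantly above 0 at FDR 0.05; inactive = not significantly above 0 or absent from output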
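Further: [psi-pin-] Saccharomyces cerevisiae expressing SupN fusions, induced by 100 µM Cu2SO4, selected 7 d at 30 °C without adenine and uracil, scored by deep sequencing of output versus input.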

Sequence	amyloid nucleation score
EASNCFAIRHFENKFAVETLICNV	inactive
EASNCFAIRHFENKFAVETLICNVASEEGPNHCI	0.573
EASNCFAIRHFENKFAVETLICNVDCSLDKVWMY	inactive
EASNCFAIRHFENKFAVETLICNVG	inactive
EASNCFAIRHFENKFAVETLICNVGGGHLWVV	inactive
EASNCFAIRHFENKFAVETLICNVGHPG	4.04
EASNCFAIRHFENKFAVETLICNVGTGSYFGWEL	7.47
EASNCFAIRHFENKFAVETLICNVGWLR	4.54
EASNCFAIRHFENKFAVETLICNVKFVC	4.46
EASNCFAIRHFENKFAVETLICNVLMPHCCAEIT	6.02
EASNCFAIRHFENKFAVETLICNVMRTL	inactive
EASNCFAIRHFENKFAVETLICNVMWRG	inactive
EASNCFAIRHFENKFAVETLICNVNRTTAWPNLE	1.03
EASNCFAIRHFENKFAVETLICNVQGM	3.58
EASNCFAIRHFENKFAVETLICNVRLIKSHVMAD	inactive
EASNCFAIRHFENKFAVETLICNVRVRVFMIVPA	0.321
EASNCFAIRHFENKFAVETLICNVRWSNETLSYS	inactive
EASNCFAIRHFENKFAVETLICNVSTSGVLVRRR	inactive
EASNCFAIRHFENKFAVETLICNVSVCKCASKVA	8.11
EASNCFAIRHFENKFAVETLICNVSVPNMVKSV	inactive
EASNCFAIRHFENKFAVETLICNVTCCVTSICWL	6.97
EASNCFAIRHFENKFAVETLICNVVAVESPPVGW	4.46

Sequence	amyloid nucleation score
EASNCFAIRHFENKFAVETLICNVVFVTVNRVCA	inactive
EASNCFAIRHFENKFAVETLICNVWR	8.07
EASNCFAIRHFENKFAVETLICNWCFRSAKGTSA	4.75
EASNCFAIRHFENKFAVETLICNWCGYGVVADVR	5.64
EASNCFAIRHFENKFAVETLICNWRIALYILPLR	inactive
EASNCFAIRHFENKFAVETLICNYCRILMGIYRV	inactive
EASNCFAIRHFENKFAVETLICNYHGLPPSWMLG	6.2
EASNCFAIRHFENKFAVETLICPADRRDVFPNLR	inactive
EASNCFAIRHFENKFAVETLICPAGGPVRYSHTS	inactive
EASNCFAIRHFENKFAVETLICPALPCNGLTDMG	inactive
EASNCFAIRHFENKFAVETLICPAMIPRTVVPSI	-0.317
EASNCFAIRHFENKFAVETLICPANKGCTLLSVR	inactive
EASNCFAIRHFENKFAVETLICPAQSRCQFVVSI	inactive
EASNCFAIRHFENKFAVETLICPASGLWEREMER	inactive
EASNCFAIRHFENKFAVETLICPAVKRQRNTDSL	0.348
EASNCFAIRHFENKFAVETLICPAWSVLRSHYEM	inactive
EASNCFAIRHFENKFAVETLICPAYPP	inactive
EASNCFAIRHFENKFAVETLICPAYRESGSKKRA	inactive
EASNCFAIRHFENKFAVETLICPAYYMSSAWKSG	inactive
EASNCFAIRHFENKFAVETLICPCCGSRHRQDEM	7.4
EASNCFAIRHFENKFAVETLICPCCKVSVCYPWE	inactive
EASNCFAIRHFENKFAVETLICPCCLVCVVGQMV	2.69

Same assay, conditions: random library (experiment): 2

Sequence	amyloid nucleation score
EASNCFAIRHFENKFAVETLICNVASMMIISVVE	inactive
EASNCFAIRHFENKFAVETLICNVAYVINQPSAR	8.24
EASNCFAIRHFENKFAVETLICNVCEQSLNRVVL	3.01
EASNCFAIRHFENKFAVETLICNVCSTICLFAMS	7.73
EASNCFAIRHFENKFAVETLICNVFKSNLSDTRM	5.54
EASNCFAIRHFENKFAVETLICNVFTSQLVKAGW	6.33
EASNCFAIRHFENKFAVETLICNVFWLNVFWEIR	inactive
EASNCFAIRHFENKFAVETLICNVGSVQCFVLSL	6.59
EASNCFAIRHFENKFAVETLICNVGYSFLLLSCD	3.48
EASNCFAIRHFENKFAVETLICNVNGNFNTRLEP	8.26
EASNCFAIRHFENKFAVETLICNVPRFKEWRMGG	2.34
EASNCFAIRHFENKFAVETLICNVQFRPYNWNVR	7.79
EASNCFAIRHFENKFAVETLICNVRIACLSYGSL	inactive
EASNCFAIRHFENKFAVETLICNVRKSPFSLYLF	inactive
EASNCFAIRHFENKFAVETLICNVRRE	3.07
EASNCFAIRHFENKFAVETLICNVSVRLERER	8.1
EASNCFAIRHFENKFAVETLICNVVCCIQNLLCP	6.71
EASNCFAIRHFENKFAVETLICNVVFVCTPRWIT	4.8
EASNCFAIRHFENKFAVETLICNVVMRREMGYWW	inactive
EASNCFAIRHFENKFAVETLICNVWFVTAYNGSV	7.46
EASNCFAIRHFENKFAVETLICNVYFD	8.04
EASNCFAIRHFENKFAVETLICNVYRSIIRTLGV	inactive
EASNCFAIRHFENKFAVETLICNVYSDRRMWTWG	3.7

Sequence	amyloid nucleation score
EASNCFAIRHFENKFAVETLICNWAFIMWYHWEL	inactive
EASNCFAIRHFENKFAVETLICNWAQCGLSMVWG	5.27
EASNCFAIRHFENKFAVETLICNWKNLRMCAVRA	inactive
EASNCFAIRHFENKFAVETLICNWLYSRWTRSVT	inactive
EASNCFAIRHFENKFAVETLICNWNVNLCSLIVM	8.22
EASNCFAIRHFENKFAVETLICNWSV	6.97
EASNCFAIRHFENKFAVETLICNYAWYSTSYRFV	inactive
EASNCFAIRHFENKFAVETLICNYERAFKWFTLV	inactive
EASNCFAIRHFENKFAVETLICNYGHMKYTGCIR	8.41
EASNCFAIRHFENKFAVETLICNYKVLRICLDGQ	inactive
EASNCFAIRHFENKFAVETLICNYLITLDLTSV	7.02
EASNCFAIRHFENKFAVETLICNYMCWIGWWLRY	inactive
EASNCFAIRHFENKFAVETLICNYPWITKYLRWR	inactive
EASNCFAIRHFENKFAVETLICNYVFFIDFRRTF	5.77
EASNCFAIRHFENKFAVETLICNYWAMESVIGDV	inactive
EASNCFAIRHFENKFAVETLICPA	inactive
EASNCFAIRHFENKFAVETLICPAAHMWRLKSEV	inactive
EASNCFAIRHFENKFAVETLICPACFLLNVSVKT	inactive
EASNCFAIRHFENKFAVETLICPAIV	inactive
EASNCFAIRHFENKFAVETLICPAVLWNLPRWCC	5.74
EASNCFAIRHFENKFAVETLICPCCWIPLVKNIF	2.46
EASNCFAIRHFENKFAVETLICPCIAPRHICGVG	inactive

Same assay, conditions: random library (experiment): 3

Sequence	amyloid nucleation score
EASNCFAIRHFENKFAVETLICNVCCYARYVLLS	inactive
EASNCFAIRHFENKFAVETLICNVCNVTGRVCAR	inactive
EASNCFAIRHFENKFAVETLICNVDCADGSAWR	3.52
EASNCFAIRHFENKFAVETLICNVEA	inactive
EASNCFAIRHFENKFAVETLICNVEW	4.43
EASNCFAIRHFENKFAVETLICNVGDATILGVVE	5.04
EASNCFAIRHFENKFAVETLICNVIGLNTPCCDT	7.76
EASNCFAIRHFENKFAVETLICNVLARPHGRGRR	7.21
EASNCFAIRHFENKFAVETLICNVMIMTYRTNLM	inactive
EASNCFAIRHFENKFAVETLICNVPCHGW	2.9
EASNCFAIRHFENKFAVETLICNVQVGSREVGSG	7.86
EASNCFAIRHFENKFAVETLICNVTGQKVVRRCM	inactive
EASNCFAIRHFENKFAVETLICNVTQPEL	inactive
EASNCFAIRHFENKFAVETLICNVV	inactive
EASNCFAIRHFENKFAVETLICNVVDYAYMEFRG	5
EASNCFAIRHFENKFAVETLICNVVSVMAWPCFA	5

Sequence	amyloid nucleation score
EASNCFAIRHFENKFAVETLICNWAHGQAWQEGC	inactive
EASNCFAIRHFENKFAVETLICNWEARGREPIEL	inactive
EASNCFAIRHFENKFAVETLICNWFMSDLLNMSR	3.83
EASNCFAIRHFENKFAVETLICNWKMCNVSWMRM	-0.0696
EASNCFAIRHFENKFAVETLICNWNKASEMCGWY	6.16
EASNCFAIRHFENKFAVETLICNYAYVNYRYYKA	1
EASNCFAIRHFENKFAVETLICNYLYTRVFWNGS	inactive
EASNCFAIRHFENKFAVETLICPAGWETWVSRPS	inactive
EASNCFAIRHFENKFAVETLICPAHWLGDANRLR	inactive
EASNCFAIRHFENKFAVETLICPAKTDVVAYKLE	inactive
EASNCFAIRHFENKFAVETLICPARNGHK	inactive
EASNCFAIRHFENKFAVETLICPARWCR	inactive
EASNCFAIRHFENKFAVETLICPC	inactive
EASNCFAIRHFENKFAVETLICPCDMGQRMGWYR	5.2
EASNCFAIRHFENKFAVETLICPCGTGPDRQIVQ	5.37
